Paper PMC10470960
Numbering of substitutions follows the chain as printed. No constants are given. Whether binding was seen depends on the method and setting. Some results given as binding are weak or reduced against the parent protein; the word gives no strength. Where a sequence is shown, tags or fusion partners need not be part of it.

Legend:
Experiment in all cases: two-hybrid; one-hybrid assay: Kar4p-Gal4 DNA-binding domain recruits endogenous Ste12p to drive the HIS3 reporter in PJ69-4A; 10-fold serial dilutions on SC-HIS with 3 uM alpha-factor, 30 degrees; graded ++++ to -
[1] = molecular target: T1, Kar4p F186S fused to the Gal4p DNA-binding domain (S. cerevisiae) (UniProt P25583)
T1 sequence: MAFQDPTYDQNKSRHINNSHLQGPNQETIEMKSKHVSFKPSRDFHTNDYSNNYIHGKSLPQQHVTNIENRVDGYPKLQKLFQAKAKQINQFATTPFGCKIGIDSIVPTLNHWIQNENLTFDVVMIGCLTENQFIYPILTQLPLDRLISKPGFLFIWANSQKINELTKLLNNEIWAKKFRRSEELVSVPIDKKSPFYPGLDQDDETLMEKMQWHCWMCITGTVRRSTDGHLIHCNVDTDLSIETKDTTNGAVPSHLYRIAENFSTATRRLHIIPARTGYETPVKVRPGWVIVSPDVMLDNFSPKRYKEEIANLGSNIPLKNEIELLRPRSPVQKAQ

[2] = molecular target: T2, Kar4p ΔP281V282 fused to the Gal4p DNA-binding domain (S. cerevisiae) (UniProt P25583)
T2 sequence: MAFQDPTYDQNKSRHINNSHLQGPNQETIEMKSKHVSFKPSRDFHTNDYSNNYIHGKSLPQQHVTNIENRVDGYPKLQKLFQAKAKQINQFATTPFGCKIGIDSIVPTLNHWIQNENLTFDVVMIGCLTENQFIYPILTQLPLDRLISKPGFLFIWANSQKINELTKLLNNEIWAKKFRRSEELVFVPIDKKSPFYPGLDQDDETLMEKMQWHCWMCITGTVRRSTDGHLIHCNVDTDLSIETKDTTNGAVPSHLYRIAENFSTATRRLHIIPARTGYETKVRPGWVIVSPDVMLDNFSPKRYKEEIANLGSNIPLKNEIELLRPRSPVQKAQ

[3] = molecular target: T3, Kar4p E260K fused to the Gal4p DNA-binding domain (S. cerevisiae) (UniProt P25583)
T3 sequence: T1 sequence with S186F, E260K

[4] = molecular target: T4, Kar4p L255F fused to the Gal4p DNA-binding domain (S. cerevisiae) (UniProt P25583)
T4 sequence: T1 sequence with S186F, L255F

[5] = molecular target: T5, Kar4p W212R fused to the Gal4p DNA-binding domain (S. cerevisiae) (UniProt P25583)
T5 sequence: T1 sequence with S186F, W212R

[6] = molecular target: T6, Kar4p T264P fused to the Gal4p DNA-binding domain (S. cerevisiae) (UniProt P25583)
T6 sequence: T1 sequence with S186F, T264P

binding [1]: no binding
binding [2]: binds
binding [3]: binds
binding [4]: no binding
binding [5]: binds
binding [6]: binds
B1: Ste12p (protein, UniProt P13574 1-688)
chain: MKVQITNSRTEEILKVQANNENDEVSKATPGEVEESLRLIGDLKFFLATAPVNWQENQIIRRYYLNSGQGFVSCVFWNNLYYITGTDIVKCCLYRMQKFGREVVQKKKFEEGIFSDLRNLKCGIDATLEQPKSEFLSFLFRNMCLKTQKKQKVFFWFSVAHDKLFADALERDLKRESLNQPSTTKPVNEPALSFSYDSSSDKPLYDQLLQHLDSRRPSSTTKSDNSPPKLESENFKDNELVTVTNQPLLGVGLMDDDAPESPSQINDFIPQKLIIEPNTLELNGLTEETPHDLPKNTAKGRDEEDFPLDYFPVSVEYPTEENAFDPFPPQAFTPAAPSMPISYDNVNERDSMPVNSLLNRYPYQLSVAPTFPVPPSSSRQHFMTNRDFYSSNNNKEKLVSPSDPTSYMKYDEPVMDFDESRPNENCTNAKSHNSGQQTKQHQLYSNNFQQSYPNGMVPGYYPKMPYNPMGGDPLLDQAFYGADDFFFPPEGCDNNMLYPQTATSWNVLPPQAMQPAPTYVGRPYTPNYRSTPGSAMFPYMQSSNSMQWNTAVSPYSSRAPSTTAKNYPPSTFYSQNINQYPRRRTVGMKSSQGNVPTGNKQSVGKSAKISKPLHIKTSAYQKQYKINLETKARPSAGDEDSAHPDKNKEISMPTPDSNTLVVQSEEGGAHSLEVDTNRRSDKNLPDAT
